Hit rate of the full screen: of about 48,000 compounds, about 450 (0.94%) were called active. The inconclusive results got no clear call from the source; some entries with a clear call stand among them for comparison. Calls come from the whole dose curve; as a rule, active = well fitted inhibition curve with a large enough effect; inconclusive = small, poorly fitted or top-dose-only effect; inactive = no such curve, though single readings can be large or run the other way. A potency beside an inconclusive call is a rough fit, not a confirmed value.
Assay: Primary qHTS for Identification of Small Molecule Inhibitors of Huntingtin Promoter Activity; note: nearly all actives have a fitted effect of over 50% in size
Conditions: HEK293 HTT promoter firefly luciferase reporter (activity 0% = vehicle and -100% = no light), 24 h; activity change, negative = inhibition: at 57.5 µM (top of the series)
Outline: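 Firefly luciferase signal from promoter-reporter HEK293 cells was scaled between vehicle (0%) and zero RLU (-100%). Compounds were tested at final concentrations of up to 57.5 uM over 24 h at 37 degrees C. PTC124 at 50 uM final served as control inhibitor.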
In the case of `O=C(CCC1CCCC1)N1CCc2c([nH]c3ccccc23)C1c1ccc(Cl)cc1` (stereo not given), the Potency is reported as inconclusive: 10 µM [inhibitor, partial curve, poor fit].
For `O=C(Nc1ccccc1F)c1nc(SCc2ccc(F)cc2)ncc1Cl`, the “activity change, negative = inhibition” value was inactive: -1.04%.
In the case of `CCCN1C(=O)C(O)(CC(=O)c2ccc(OC)c(OC)c2)c2ccccc21` (stereo not given), the Potency is reported as inconclusive: 31.6 µM [inhibitor, partial curve, poor fit].
With `O=C(Nc1ccc2nc(SCCOc3ccccc3)sc2c1)c1cccs1` the Potency was inconclusive: 39.8 µM [inhibitor, single point].
With `O=C(Nc1ccc(C(F)(F)F)cc1)c1cc(S(=O)(=O)NC2CCCCC2)ccc1F` the Potency was inconclusive: 25.1 µM [inhibitor, partial curve].
In the case of `CCc1ccc(NC(=O)c2ccc(F)c(S(=O)(=O)NC3CCCCCC3)c2)cc1`, the Potency is reported as inconclusive: 15.8 µM [inhibitor, partial curve, poor fit].
For `CCOc1ccccc1NC(=O)c1sc2nc(C)cc(C)c2c1N`, the “activity change, negative = inhibition” value was inactive: 13.5%.
In the case of `COc1ccc(CNC(=O)Cn2c(=O)oc3cc(S(=O)(=O)N4CCC(C)CC4)ccc32)cc1`, the Potency is reported as inconclusive: 15.8 µM [inhibitor, partial curve].
For `COc1cccc(CNC(=O)CN2C(=O)CSc3c2c(C)nn3-c2ccccc2)c1OC`, the Potency was inconclusive: 28.2 µM [inhibitor, single point].
With `Cc1cc(-c2ccc(C)c(S(=O)(=O)Nc3ccccc3C(F)(F)F)c2)on1` the Potency was inconclusive: 35.5 µM [inhibitor, single point].
In the case of `COc1ccc(C(=O)N(Cc2ccc(N(C)C)cc2)Cc2ccco2)cc1Cl`, the Potency is reported as inconclusive: 35.5 µM [inhibitor, single point].
With `Cc1ccc(C)n1-c1c(C(=O)NCC(C)c2ccccc2)sc2ncccc12` (stereo not given) the Potency was inconclusive: 28.2 µM [inhibitor, single point].
With `COc1ccc(C(=O)Oc2c(Sc3ccc(Cl)cc3)c(C)nn2C(C)(C)C)cc1OC` the Potency was inconclusive: 35.5 µM [inhibitor, partial curve, poor fit].
For `O=C(Cn1c(=O)c2ccccc2n(CC(=O)Nc2ccc(Cl)cc2)c1=O)NCCc1ccccc1`, the Potency was inconclusive: 17.8 µM [inhibitor, single point].
For `Cc1c(CCNC(=O)Cc2ccc(F)cc2)sc2nc(-c3ccc(F)cc3)nn12`, the Potency was inconclusive: 39.8 µM [inhibitor, single point].
In the case of `CCOC(=O)N1CCN([N+]([O-])=NOc2ccc([N+](=O)[O-])cc2[N+](=O)[O-])CC1`, the Potency is reported as inconclusive: 6.85 µM [inhibitor, partial curve].
With `CCCCc1nnc(SCc2cc(=O)c3cc(F)ccc3[nH]2)n1C` the Potency was inconclusive: 20 µM [inhibitor, single point].
With `CCN(CC)C(=O)c1c(NC(=O)c2cccc(C)c2)sc2c1CCC(C)C2` (stereo not given) the Potency was inconclusive: 2.24 µM [inhibitor, full curve].
In the case of `COc1ccc(C(=O)NCCn2cc(SCc3c(F)cccc3Cl)c3ccccc32)cc1`, the Potency is reported as inconclusive: 31.6 µM [inhibitor, partial curve, poor fit].
With `Cc1ccc(-n2ncc3c(NC4CCCCCC4)ncnc32)cc1` the “activity change, negative = inhibition” value was inactive: -29.6%.
For `Cc1cc(C)c(-c2n[nH]c3c2C(c2ccccc2F)N(Cc2ccco2)C3=O)c(O)c1` (stereo not given), the Potency was inconclusive: 28.2 µM [inhibitor, partial curve].
In the case of `O=C(c1cnc(N2CCOCC2)c2ccccc12)N1CCN(c2ccccc2)CC1`, the Potency is reported as inconclusive: 28.2 µM [inhibitor, single point].
With `COc1cc(NC(=O)N2CCc3c(sc4c3CCCC4)C2c2ccccc2)cc(OC)c1OC` (stereo not given) the Potency was inconclusive: 35.5 µM [inhibitor, single point].
In the case of `COc1ccc(OC)c2sc(N3CCN(C(=O)c4ccco4)CC3)nc12`, the “activity change, negative = inhibition” value is reported as inactive: -23%.
For `Cc1c(C(=O)N2CCC(C)CC2)c(S(=O)(=O)N(Cc2ccccc2)C(C)(C)C)c(C)n1C`, the Potency was inconclusive: 28.2 µM [inhibitor, partial curve, poor fit].
For `CCN(CC)C(=O)c1ccc2c(c1)N(Cc1ccc(C(F)(F)F)cc1)C(=O)c1ccccc1S2`, the “activity change, negative = inhibition” value was inactive: -23.2%.
With `CCC(=O)NCCc1nc2cc(NC(=O)c3cccc(Br)c3)ccc2n1C` the “activity change, negative = inhibition” value was inactive: -2.11%.
With `CCOc1ccccc1CNC(=O)C1CCCN(c2nnc(C)c3c(C)n(-c4ccccc4)nc23)C1` (stereo not given) the Potency was inconclusive: 35.5 µM [inhibitor, single point].
For `COc1ccc(Nc2ncnc3sc4c(c23)CCCC4)cc1`, the “activity change, negative = inhibition” value was inactive: -17.4%.
In the case of `O=C(NCc1ccccc1Cl)c1ccc(CS(=O)(=O)c2ccc(Br)cc2)o1`, the Potency is reported as inconclusive: 28.2 µM [inhibitor, single point].
In the case of `Clc1ccc(-n2ncc3c(NC4CCCC4)ncnc32)cc1`, the Potency is reported as inconclusive: 12.6 µM [inhibitor, partial curve, poor fit].
For `CCN(CC)S(=O)(=O)c1ccc2c(c1)N(CC(=O)N1CCN(c3cccc(C)c3C)CC1)C(=O)CO2`, the Potency was inconclusive: 25.1 µM [inhibitor, single point].
With `CCN(C(=O)CCc1nc(-c2ccc(C)cc2)no1)c1cccc(C(F)(F)F)c1` the Potency was inconclusive: 15.8 µM [inhibitor, partial curve, poor fit].
For `CCc1ccc(NC(=O)CSc2nnc3[nH]c(=O)cc(-c4ccccc4)n23)cc1`, the “activity change, negative = inhibition” value was inactive: 21.5%.
For `COc1ccc(CN2CCc3c(c(=O)n4ncc(C(=O)N5CCN(c6ccccc6F)CC5)c4n3C)C2)cc1`, the Potency was inconclusive: 14.1 µM [inhibitor, partial curve, poor fit].
In the case of `Cc1cccc(N2CCN(C(=O)c3nn(C)c4c3CS(=O)(=O)c3ccccc3-4)CC2)c1C`, the Potency is reported as inconclusive: 28.2 µM [inhibitor, single point].
In the case of `CCCCC1CCC(C(=O)N2CC(=O)Nc3ccc(C)cc3C2c2ccc(F)cc2)CC1` (stereo not given), the Potency is reported as inconclusive: 39.8 µM [inhibitor, single point].
In the case of `COc1ccc(Cn2ccc3nc(C)c(C(=O)N4CCN(c5cccc(OC)c5)CC4)cc3c2=O)cc1`, the Potency is reported as inconclusive: 28.2 µM [inhibitor, single point].
In the case of `CC(=O)c1cccc(NC(=O)CN2C(=O)CCc3cc(S(=O)(=O)N4CCCCC4)ccc32)c1`, the Potency is reported as inconclusive: 28.2 µM [inhibitor, single point].
In the case of `COc1cccc2cc(C(=O)Nc3ccc(CC(=O)O)cc3)c(=O)oc12`, the Potency is reported as active: 0.282 µM.
With `CCCCN1CC(c2nc3ccccc3n2CCCCOc2cc(C)cc(C)c2)CC1=O` (stereo not given) the Potency was inconclusive: 39.8 µM [inhibitor, single point].
For `Cc1c(C(=O)OCCOc2ccccc2)[nH]c2c1C(=O)CC(c1ccc(C(C)(C)C)cc1)C2` (stereo not given), the Potency was inconclusive: 6.31 µM [inhibitor, partial curve].
In the case of `O=C(NCC(c1cccnc1)N1CCN(c2ccccc2F)CC1)C(=O)Nc1ccc(F)cc1F` (stereo not given), the “activity change, negative = inhibition” value is reported as inactive: -28.2%.
In the case of `COc1cccc(N2CCN(C(=O)C3CCCN(S(=O)(=O)c4cccc5nsnc45)C3)CC2)c1` (stereo not given), the Potency is reported as inconclusive: 14.1 µM [inhibitor, partial curve, poor fit].
In the case of `CCOc1ccc(C(=O)Nc2cc(-c3nc4cc(OC)ccc4o3)ccc2C)cc1[N+](=O)[O-]`, the “activity change, negative = inhibition” value is reported as inactive: 29.7%.
For `CCNC(=O)c1ccc2c(c1)nc1n2CCCCC1`, the “activity change, negative = inhibition” value was inactive: 69.2%.
In the case of `CC(=O)N1CCCc2cc(S(=O)(=O)N3CCN(c4ccccc4F)CC3)ccc21`, the Potency is reported as inconclusive: 14.1 µM [inhibitor, partial curve, poor fit].
In the case of `Cc1ccc2c(c1)N(C(=O)N1CCC(C(=O)NCc3ccccc3C)CC1)CC(C)O2` (stereo not given), the Potency is reported as inconclusive: 20 µM [inhibitor, single point].
For `NC(=NCCCCCCN=C(N)/N=C(\N)Nc1ccc(Cl)cc1)/N=C(\N)Nc1ccc(Cl)cc1`, the Potency was inconclusive: 39.8 µM [inhibitor, single point].
With `CC(=O)N1c2ccc(S(=O)(=O)NCc3ccccc3Cl)cc2CC1C` (stereo not given) the Potency was inconclusive: 31.6 µM [inhibitor, partial curve, poor fit].
With `COc1ccc(N2CCN(C(=O)C3CCCN(C(=O)c4cc5sccc5n4C)C3)CC2)cc1` (stereo not given) the Potency was inconclusive: 25.1 µM [inhibitor, partial curve, poor fit].
For `COc1ccc(N2CCN(c3ccc(-c4nc(-c5ccccc5)no4)cc3[N+](=O)[O-])CC2)cc1`, the Potency was inconclusive: 35.5 µM [inhibitor, single point].
With `COc1cc2[nH]c(=O)n(Cc3ccc(C(=O)N4CCN(c5ccc(Cl)cc5)CC4)cc3)c(=O)c2cc1OC` the Potency was active: 14.1 µM.
In the case of `Cc1ccc(N(Cc2cccs2)C(=O)C(C)Oc2ccc(Cl)c(C)c2)cc1` (stereo not given), the Potency is reported as inconclusive: 28.2 µM [inhibitor, single point].
With `COc1ccc(S(=O)(=O)NCCSc2nnnn2-c2ccccc2)cc1OC` the Potency was inconclusive: 28.2 µM [inhibitor, partial curve, poor fit].
For `CC(C)CCNC(=O)c1ccc2c(c1)NC(=O)C(C(C)C)N2` (stereo not given), the Potency was inconclusive: 3.55 µM [inhibitor, single point].
For `COc1cc(N2CCN(C)CC2)ccc1Nc1nc(N)c(C(=O)c2c(Cl)cccc2Cl)s1`, the “activity change, negative = inhibition” value was inactive: -11.5%.
With `Cc1ccc(-c2onc(C)c2C)cc1S(=O)(=O)N1CCOc2ccc(Cl)cc21` the Potency was inconclusive: 28.2 µM [inhibitor, single point].
With `COc1cc(/C=C(\C#N)c2nc3ccccc3[nH]2)ccc1OCc1ccccc1F` the Potency was inconclusive: 28.2 µM [inhibitor, partial curve].
With `COc1ccc(CCC(=O)NCc2ccc3c(c2)CCN3C(=O)c2ccccc2)cc1` the Potency was inconclusive: 39.8 µM [inhibitor, single point].
Potency is the fitted concentration of half-maximal effect; tags give direction and shape of the fitted curve.
